# Patent publication US20260234160A1, “NEW SUBSTITUTED QUINOLINE COMPOUNDS FOR COMBATITNG PHYTOPATHOGENIC FUNGI” (BASF SE, priority 2023, published 2026)
# Some results were stated once for a whole list of compounds, not compound by compound.
# Experiments:
# Septoria tritici = assay: Activity against leaf blotch on wheat caused by Septoria tritici in the microtiterplate test; assay type: cell-based; details: 31 ppm, MTP, relative to active compound-free control (100%)
# Botrytis cinerea [1] = assay: Preventative fungicidal control of Botrytis cinerea on leaves of green pepper (green house); assay type: in vivo; details: inoculated next day, assessed after 5 days, untreated 90%
# Fusarium culmorum = assay: Activity against Fusarium culmorum in the microtiterplate test; assay type: cell-based; details: 31 ppm, MTP
# Sclerotinia sclerotiorum [2] = assay: Preventative fungicidal control of white mold on soybeans caused by Sclerotinia sclerotiorum (green house); assay type: in vivo; details: assessed after 6 days
# Sclerotinia sclerotiorum [3] = assay: Preventative fungicidal control of white mold on oilseed rape caused by Sclerotinia sclerotiorum (green house); assay type: in vivo; details: 125 ppm, assessed after 14 days, untreated 90%
# Protocol: The compound was dissolved in a mixture of acetone and/or dimethylsulfoxide and the wetting agent/emulsifier Wettol, which is based on ethoxylated alkylphenoles, in a ratio (volume) solvent-emulsifier of 99 to 1 to give a total volume of 5 ml. Subsequently, water was added to total volume of 100 ml.
# This stock solution was then diluted with the described solvent-emulsifier-water mixture to the final concentration given in the table below.
# Oilseed rapes were grown in pots to the 13 to 14 leaf stage. These plants were sprayed to runoff with previously described spray solution, containing the concentration of active ingredient or their mixture mentioned in the table below.
# The plants could air-dry. The next day the applicated rape petals were fixed with 25 μl of 2.5% methylcellulose on leaf 1 and 2. 25 μl of a spore suspension of Sclerotinia sclerotiorum was pipetted on each fixed rape petal. After 14 days at 20° C. and a relative humidity of 60% the extent of fungal attack on the leaves was visually assessed as % diseased leaf area.
# Botrytis cinerea [4] = assay: Activity against the grey mold Botrytis cinerea in the microtiterplate test; assay type: cell-based; details: 31 ppm, MTP, 405 nm, 7 days after inoculation
# Protocol: The active compounds were formulated separately as a stock solution having a concentration of 10000 ppm in dimethyl sulfoxide.
# The stock solutions were mixed according to the ratio, pipetted onto a micro titer plate (MTP) and diluted with water to the stated concentrations. A spore suspension of Botrytis cinerea in an aqueous biomalt or yeast-bactopeptone-sodium acetate solution was then added. The plates were placed in a water vapor-saturated chamber at a temperature of 18° C. Using an absorption photometer, the MTPs were measured at 405 nm 7 days after the inoculation.
# [5] = test system: Corynespora cassiicola Qoi resistant isolate (G143A); assay: Activity against Corynespora cassiicola Qoi resistant isolate (G143A) in the microtiterplate test; assay type: cell-based; details: 31 ppm, MTP
# Cercospora zea maydis = assay: Activity against Cercospora zea maydis in the microtiterplate test; assay type: cell-based; details: 31 ppm, MTP, relative to active compound-free control (100%)
# Cercospora sojina = assay: Activity against Cercospora sojina in the microtiterplate test; assay type: cell-based; details: 31 ppm, MTP, relative to active compound-free control (100%)
# Botrytis cinerea [6] = assay: Long lasting control of Botrytis cinerea on leaves of green pepper (green house); assay type: in vivo; details: 125 ppm, inoculated 7 days after spraying, assessed after 5 days, untreated 90%
# Cercospora beticula = assay: Activity against Cercospora beticula in the microtiterplate test; assay type: cell-based; details: 31 ppm, MTP, relative to active compound-free control (100%)
# Alternaria solani = assay: Activity against Alternaria solani in the microtiterplate test; assay type: cell-based; details: 31 ppm, MTP, relative to active compound-free control (100%)
structure (smiles),measurement,setting,value
"C[C@@H]1N=C(c2cnc3c(F)cccc3c2)c2ccccc2OC1(C)C [Ex-1, (S)-5-(8-fluoroquinolin-3-yl)-2,2,3-trimethyl-2,3-dihydrobenzo[f][1,4]oxazepane]",growth of the pathogen,Septoria tritici,up to 15%
same,growth of the pathogen (% diseased leaf area),Botrytis cinerea [1]; 250 ppm,less than 3%
same,growth of the pathogen,Fusarium culmorum,up to 1%
same,growth of the pathogen (% diseased leaf area),"Sclerotinia sclerotiorum [2]; 250 ppm, untreated 100%",less than 11%
Cc1nc2c(F)c(F)ccc2cc1C1=N[C@@H](C)C(C)(C)Oc2ccccc21 [Ex-8],growth of the pathogen,Fusarium culmorum,up to 17%
C[C@@H]1N=C(c2cnc3c(Cl)c(F)ccc3c2)c2cccc(F)c2OC1(C)C [Ex-6],growth of the pathogen (% diseased leaf area),Sclerotinia sclerotiorum [3],less than 12%
same,growth of the pathogen (% diseased leaf area),Botrytis cinerea [1]; 125 ppm,less than 4%
same,growth of the pathogen,Botrytis cinerea [4],up to 1%
same,growth of the pathogen,[5],up to 16%
same,growth of the pathogen,Cercospora zea maydis,up to 5%
same,growth of the pathogen,Fusarium culmorum,up to 17%
same,growth of the pathogen (% diseased leaf area),"Sclerotinia sclerotiorum [2]; 125 ppm, untreated 80%",less than 21%
"C[C@@H]1N=C(c2cnc3c(F)c(F)ccc3c2)c2cccc(F)c2OC1(C)C [Ex-7, (3S)-5-(7,8-difluoro-3-quinolyl)-9-fluoro-2,2,3-trimethyl-3H-1,4-benzoxazepine]",growth of the pathogen,Fusarium culmorum,up to 17%
C[C@@H]1N=C(c2cnc3c(F)c(F)ccc3c2)c2ccccc2OC1(C)C [Ex-9],growth of the pathogen,Cercospora sojina,up to 19%
same,growth of the pathogen (% diseased leaf area),Botrytis cinerea [6],less than 20%
same,growth of the pathogen,Septoria tritici,up to 15%
same,growth of the pathogen (% diseased leaf area),Botrytis cinerea [1]; 125 ppm,less than 4%
same,growth of the pathogen,Botrytis cinerea [4],up to 1%
same,growth of the pathogen,[5],up to 16%
same,growth of the pathogen,Cercospora zea maydis,up to 5%
same,growth of the pathogen,Fusarium culmorum,up to 17%
same,growth of the pathogen (% diseased leaf area),"Sclerotinia sclerotiorum [2]; 125 ppm, untreated 80%",less than 21%
same,growth of the pathogen,Cercospora beticula,up to 12%
same,growth of the pathogen,Alternaria solani,up to 20%
"C[C@@H]1N=C(c2cnc3ccccc3c2)c2cccc(F)c2OC1(C)C [Ex-4, (3S)-9-fluoro-2,2,3-trimethyl-5-(3-quinolyl)-3H-1,4-benzoxazepine]",growth of the pathogen,Fusarium culmorum,up to 1%
Cc1c(C2=N[C@@H](C)C(C)(C)Oc3ccccc32)cnc2c(F)cccc12 [Ex-12],growth of the pathogen,Fusarium culmorum,up to 17%
"C[C@@H]1N=C(c2cnc3c(F)cccc3c2)c2cccc(F)c2OC1(C)C [Ex-3, (3S)-9-fluoro-5-(8-fluoro-3-quinolyl)-2,2,3-trimethyl-3H-1,4-benzoxazepine]",growth of the pathogen,Fusarium culmorum,up to 1%
Cc1c(C2=N[C@@H](C)C(C)(C)Oc3c(F)cccc32)cnc2ccccc12 [Ex-11],growth of the pathogen,Fusarium culmorum,up to 17%
Cc1c(C2=N[C@@H](C)C(C)(C)Oc3c(F)cccc32)cnc2c(F)cccc12 [Ex-13],growth of the pathogen,Fusarium culmorum,up to 17%
